According to the supplement of paper PMC8728848:
The other results are listed elsewhere or left out.

Legend:
Assay in all cases: glycan array binding signal (z-score within array); higher = stronger binding
Conditions in all cases: glycan notation: IUPAC condensed, linker removed
[1] = target: Fuc(a1-3)[Gal3S(b1-4)]GlcNAc6S
In short: (§1)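 The binding signal is a Z-score computed within each array and averaged over linkers. Arrays of the same protein sequence at different concentrations or buffers were also averaged together. Data originate from 3228 arrays in the Consortium for Functional Glycomics database, kept only where the protein sequence was available.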

[2] = target: Fuc(a1-3)[GalNAc(b1-4)]GlcNAc
In short: as §1

[3] = target: Fuc(a1-3)[GalNAc(b1-4)]GlcNAc6S
In short: as §1

[4] = target: Fuc(a1-4)GlcNAc
In short: as §1

[5] = target: Fuc(b1-3)GlcNAc
In short: as §1

[6] = target: Gal(a1-2)Gal
In short: as §1

[7] = target: Gal(a1-3)Gal
In short: as §1

[8] = target: Gal(a1-3)Gal(b1-3)GlcNAc
In short: as §1

[9] = target: Gal(a1-3)Gal(b1-3)GlcNAc(b1-2)Man
In short: as §1

[10] = target: Gal(a1-3)Gal(b1-3)GlcNAc(b1-2)Man(a1-3)[Gal(a1-3)Gal(b1-3)GlcNAc(b1-2)Man(a1-6)]Man(b1-4)GlcNAc(b1-4)GlcNAc
In short: as §1

[11] = target: Gal(a1-3)Gal(b1-3)GlcNAc(b1-3)GalNAc
In short: as §1

[12] = target: Gal(a1-3)Gal(b1-3)GlcNAc(b1-6)GalNAc
In short: as §1

[13] = target: Gal(a1-3)Gal(b1-3)[Fuc(a1-4)]GlcNAc(b1-2)Man(a1-3)[Gal(a1-3)Gal(b1-3)[Fuc(a1-4)]GlcNAc(b1-2)Man(a1-6)]Man(b1-4)GlcNAc(b1-4)GlcNAc
In short: as §1

[14] = target: Gal(a1-3)Gal(b1-4)Glc
In short: as §1

[15] = target: Gal(a1-3)Gal(b1-4)GlcNAc
In short: as §1

[16] = target: Gal(a1-3)Gal(b1-4)GlcNAc(b1-2)Man
In short: as §1

[17] = target: Gal(a1-3)Gal(b1-4)GlcNAc(b1-2)Man(a1-3)[Gal(a1-3)Gal(b1-4)GlcNAc(b1-2)Man(a1-6)]Man(b1-4)GlcNAc(b1-4)GlcNAc
In short: as §1

[18] = target: Gal(a1-3)Gal(b1-4)GlcNAc(b1-3)GalNAc
In short: as §1

[19] = target: Gal(a1-3)Gal(b1-4)GlcNAc(b1-6)GalNAc
In short: as §1

[20] = target: Gal(a1-3)Gal(b1-4)[Fuc(a1-3)]GlcNAc
In short: as §1

[21] = target: Gal(a1-3)Gal(b1-4)[Fuc(a1-3)]GlcNAc(b1-2)Man(a1-3)[Gal(a1-3)Gal(b1-4)[Fuc(a1-3)]GlcNAc(b1-2)Man(a1-6)]Man(b1-4)GlcNAc(b1-4)GlcNAc
In short: as §1

[22] = target: Gal(a1-3)GalNAc
In short: as §1

[23] = target: Gal(a1-3)[Gal(a1-4)]Gal(b1-4)GlcNAc
In short: as §1

[24] = target: Gal(a1-4)Gal(b1-3)GlcNAc(b1-2)Man(a1-3)[Gal(a1-4)Gal(b1-3)GlcNAc(b1-2)Man(a1-6)]Man(b1-4)GlcNAc(b1-4)GlcNAc
In short: as §1

[25] = target: Gal(a1-4)Gal(b1-4)Glc
In short: as §1

[26] = target: Gal(a1-4)Gal(b1-4)GlcNAc
In short: as §1

[27] = target: Gal(a1-4)Gal(b1-4)GlcNAc(b1-2)Man(a1-3)[Gal(a1-4)Gal(b1-4)GlcNAc(b1-2)Man(a1-6)]Man(b1-4)GlcNAc(b1-4)GlcNAc
In short: as §1

[28] = target: Gal(a1-4)Gal(b1-4)GlcNAc(b1-3)Gal(b1-4)Glc
In short: as §1

[29] = target: Gal(a1-4)GlcNAc
In short: as §1

[30] = target: Gal(a1-6)Glc
In short: as §1

[31] = target: Gal(b1-2)Gal
In short: as §1

[32] = target: Gal(b1-3)Gal
In short: as §1

[33] = target: Gal(b1-3)Gal(b1-4)GlcNAc
In short: as §1

[34] = target: Gal(b1-3)GalNAc
In short: as §1

[35] = target: Gal(b1-3)GalNAc(a1-3)[Fuc(a1-2)]Gal(b1-4)Glc
In short: as §1

[36] = target: Gal(b1-3)GalNAc(a1-3)[Fuc(a1-2)]Gal(b1-4)GlcNAc
In short: as §1

[37] = target: Gal(b1-3)GalNAc(b1-3)Gal
In short: as §1

B1: PX9961T-pdi-555-33-555 (Parabacteroides distasonis) (protein)
chain: FDEETAFQSPTLVYVNTVASLYNNMFKIMGNDRHVYDLNTFSSDEAMLPCRIGDWEDGGLWQNIFLHRWGTMNDLTKNSWDFLYEQIGKCNQSVDKLQAFAEEQPDVEYFKVYLEEVRAVRAFFYYELLDLFARVPLVTSSTTPMSEVKQSERSVVFNFVRSELEEALPYLSDNRSNQKGEYYGRITKPVAYMILAKLALNAEVYADDNWTDGNRPAGKNIKFTVDGKEMNAWEATIAYVDKLEALGYKLQGNFSENFAVANETSVENIFTVPMDPVAYPDAKDYNLVRTRHYDHATAYGQSGWNGSCATVKAMNVFKFGTADEDPRCKLTYFTGEVTGPDGKTIYTEWDGQKVPLKYEPNAPKVYMDASDGLLVKTAGARMAKYEFDQNAQDGGNLHGNDCVIFRFADALLMKAEAKIRLGQNGDDEVNQVRNRVGAKPLQNVTLDTLLDERMLELAWEGVRRQDLIRFGKFTEATVDRYVGVKHFASSLDYQEDKTGYTTVFSIYADILSLNPNLTQNPGY
- glycan array binding signal (z-score) [1]: 0.036
- glycan array binding signal (z-score) [2]: 0.038
- glycan array binding signal (z-score) [3]: -0.391
- glycan array binding signal (z-score) [4]: 0.265
- glycan array binding signal (z-score) [5]: 0.329
- glycan array binding signal (z-score) [6]: 0.275
- glycan array binding signal (z-score) [7]: -0.435
- glycan array binding signal (z-score) [8]: -0.206
- glycan array binding signal (z-score) [9]: -0.596
- glycan array binding signal (z-score) [10]: 0.237
- glycan array binding signal (z-score) [11]: -0.176
- glycan array binding signal (z-score) [12]: -0.21
- glycan array binding signal (z-score) [13]: -0.349
- glycan array binding signal (z-score) [14]: 0.197
- glycan array binding signal (z-score) [15]: 0.037
- glycan array binding signal (z-score) [16]: 0.022
- glycan array binding signal (z-score) [17]: 0.963
- glycan array binding signal (z-score) [18]: -0.098
- glycan array binding signal (z-score) [19]: 0.534
- glycan array binding signal (z-score) [20]: 0.759
- glycan array binding signal (z-score) [21]: 0.592
- glycan array binding signal (z-score) [22]: -0.109
- glycan array binding signal (z-score) [23]: 0.147
- glycan array binding signal (z-score) [24]: 2.7
- glycan array binding signal (z-score) [25]: -0.075
- glycan array binding signal (z-score) [26]: -0.041
- glycan array binding signal (z-score) [27]: 1.51
- glycan array binding signal (z-score) [28]: -0.278
- glycan array binding signal (z-score) [29]: -0.332
- glycan array binding signal (z-score) [30]: 0.668
- glycan array binding signal (z-score) [31]: 0.357
- glycan array binding signal (z-score) [32]: -0.817
- glycan array binding signal (z-score) [33]: -0.663
- glycan array binding signal (z-score) [34]: 0.013
- glycan array binding signal (z-score) [35]: 0.663
- glycan array binding signal (z-score) [36]: -0.258
- glycan array binding signal (z-score) [37]: -0.204
